The text below walks through data of the RNAGym collection of RNA variant scans (doi:10.1093/nar/gkz1192).

The source gives no read counts; variants with many changes may rest on few reads.

The labels stand for the following.
B1: CPEB3 Ribozyme (parent)
chain: UAACAGGGGGCCACAGCAGAAGCGUUCACGUCGCAGCCCCUGUCAGAUUCUGGUGAAUCUGCGAAUUCUGCUGUAUAUCUC

The variants in this data set derive from B1. Kind of data set: self-cleavage, relative activity (ratio to wild type); higher = more cleavage; in vitro, sequencing. The method in brief: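 Barcoded CPEB3 ribozyme mutants, produced by rounds of error-prone PCR, self-cleaved while being transcribed with T7 RNA polymerase for 5 hours at 37°C and during a subsequent 15 min DNase I step before EDTA was added. Sequencing of template-switched cDNA on Illumina gave cleaved and total reads, and DNA sequencing assigned barcodes to variants. Each variant's relative activity is its cleaved/total read fraction divided by the unmutated ribozyme's fraction, averaged across three batches. A variant needed a minimum of 5 reads.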
Consider UAACAGGGGGCCACGGCAGAAGCGUCCACGCCGCAGCCCCUGUCAGAUUCUGGUGAAUCUGCGAAUUCUGCUGUAUAUCUC [A15G U26C U31C], for which the self-cleavage came out at 0.18.

Regarding UAACAGGGGGCCACGGCAGAAGCGUCCACGUCGCAGCCCCCGUCAGACUCUGGCGAAUCUGCGGAUUCUGCUGUAUAACUC [A15G U26C U41C U48C U54C A64G U78A], the self-cleavage stood at 0.15. As for UAACAGGGGGCCACGGCAGAAGCGUCCACGUCGCAGCCCCCGUCAGAUUCUGGUGAAUCCGCGAGUUCUGCUGUAUAUCUC [A15G U26C U41C U60C A65G], the figure is 0.02. Consider UAACAGGGGGCCACGGCAGAAGCGUUCACGACGCGGCCCCUGUCAGAUUCUGGUGAAUCUGCGGAUUCUGCUGUAUAUCUC [A15G U31A A35G A64G], for which the self-cleavage came out at 1.25.

On to UAACAGGGGGCCACGGCAGAAGCGUUCACGCCGCGGCCCCUGUCAGAUUCUGGUGAAUCUGCGAAUUCAGCCGUAUAUCCC [A15G U31C A35G U69A U72C U80C], for which the self-cleavage came to 0.12. As for UAACAGGGGGCCACGGCAGAAGCGUCCACGUCGCAGCCCCCGACAGAUACUGGUGAGUCUGCGAAUUCUGCUGCAUAUCUC [A15G U26C U41C U43A U49A A57G U74C], the figure is 0.12. As for UAACAGGGGGCCACGGCAGAAGCGUCCACGUCGCAGCCCCUGUCAGAUUCUGGUGAAUCCGCGAAUUCUGCUGUAUAUCUC [A15G U26C U60C], the figure is 0.33; as for UAACAGGGGGCCACGGCAGAAGCGUUCACGACGCAGCCCCUGCCAGAUUCCGGUGACUCUGCGAAUUCUGCUGUAUAUCUC [A15G U31A U43C U51C A57C], 0.09. As to UAACAGGGGGCCACGGCAGAAGCGUCCACGUCGCAGCCCCUGUCAGAUUCUGGCGAAUCUGCGAAUUCUGCCGUAUAUCUC [A15G U26C U54C U72C], the self-cleavage amounted to 0.51.

For UAACAGGGGGCCACGGCAGAAGCGUUCACGACGCAGCCCCAGUCAGGUUCUGGUGGAUCUGCGAAUUCCGCUGUAUAUCUC [A15G U31A U41A A47G A56G U69C], the self-cleavage worked out at 0.12. Regarding UAACAGGGGGCCACGGCAGAAGCGUGCACGUCGCAGCCCCUGUCAGAUUCUGGUGAAUCUGCGAAUUCUGCUGCAUAUCAC [A15G U26G U74C U80A], the self-cleavage is 0.46.

Regarding UAACAGGGGGCCACGGCAGAAGCGUCCACGCCGCAGCCCCUGUCAGUUUCUGGUGAAUCUGCGAAUUCUGCUGUAUAUCUC [A15G U26C U31C A47U], the self-cleavage was determined as 0.41. As for UAACAGGGGGCCACGGCAGAAGCGUCCACGUCGCAGCCCCCGUCAGAUACUGGUGAAUCUGCGAAUUCUGCUGUAUAUCUC [A15G U26C U41C U49A], the figure is 0.15; as for UAACAGGGGGCCACGGCAGAAGCGUUCACGCCGCGGCCCCUGUCAGAUUCUGGUGAAUCUGCGAAUUCUGCUGUAUAUCGC [A15G U31C A35G U80G], 0.47. UAACAGGGGGCCACGGCAGAAGCGUCCACGUCGCAGCCCCUGCCAGAUUCUGGUGAAUCUGCGAAUUCUGCUGUAUAUCUC [A15G U26C U43C]: the self-cleavage is 0.66. Turning to UAACAGGGGGCCACGGCAGAAGCGUCCACGUCGCAGCCCCCGUCAGAUUCUGGUGAAUCUGCGGAUUCUGCUGUAUAUCUC [A15G U26C U41C A64G], the self-cleavage came out at 0.33. Consider UAACAGGGGGCCACGGCAGAAGCGUCCACGUCGCAGCCCCUGUCAGAUUCUGGUGAAUCUGCGAAUCCUGCUGUAUAUCUC [A15G U26C U67C], for which the self-cleavage stood at 0.23. As for UAACAGGGGGCCACGGCAGAAGCGUCCACGUCGCAGCCCCUGUCAGAUUCUGGUGAAUCUGCGAACUCUGCUGUAUACCUC [A15G U26C U66C U78C], the figure is 0.29.

UAACAGGGGGCCACGGCAGAAGCGUCCACGUCGCAGCCCCUGUCAGAUUCUGGCGAAUCUGCGAAUUCUGCUGUACAUCUC [A15G U26C U54C U76C]: the self-cleavage was found to be 0.39.

For the variant UAACAGGGGGCCACGGCAGAAGCGUCCACGUCGCAGCCCCUGUCAGAUACUAGUGAAUCUGCGAAUUCUGCUGUAUAUCUC [A15G U26C U49A G52A], the self-cleavage is 0.29. As for UAACAGGGGGCCACGGCAGAAGCGUUCACGACGCAACCCCUGUCAGAUUCUGGUGAAUCUGCGGAUUCUGCUGUAUAUCUC [A15G U31A G36A A64G], the self-cleavage was 0.45. As for UAACAGGGGGCCACGGCAGAAGCGUUCACGACGCAGCCCCUGUCAGAUUCUGGUGAGUCUGCGAGCUCUGCCGUAUAUCCC [A15G U31A A57G A65G U66C U72C U80C], the figure is 1.18. As for UAACAGGGGGCCACGGCAGAAGCGUCCACGUCGCAGCCCCUGUCAGAUCCUGGUGAAUCUGCGAAUUCUGCUGUAUAUCUC [A15G U26C U49C], the figure is 0.22.

Regarding UAACAGGGGGCCACGGCAGAAGCGUCCACGUCGCAGCCCCUGUCAGAUUCUGGUGAAUCUGCGAACUCUGCUGUACAUCUC [A15G U26C U66C U76C], the self-cleavage came out at 0.19.

As for UAACAGGGGGCCACGGCAGAAGCGUGCACGUCGCAGCCCCCGUCAGAUUCUGGUGAGUCUGCGAAUUCUGCUGUAUAUCUC [A15G U26G U41C A57G], the self-cleavage was determined as 0.12. For the variant UAACAGGGGGCCACGGCAGAAGCGUGCACGUCGCAGCCCCUGUCAGAUUCCGGUGAGUCUGCGAAUCCUGCUGUAUACCUC [A15G U26G U51C A57G U67C U78C], the self-cleavage was determined as 0.04. As for UAACAGGGGGCCACGGCAGAAGCGUUCACGACACAGCCCCUGUCAGAUUCUGGUGAAUCUGCGAAUUCUGCUGUAUACCUC [A15G U31A G33A U78C], the figure is 0.15; as for UAACAGGGGGCCACGGCAGAAGCGUCCACGUCGCAGCCCCUGUCAGAUCCUGGUGAAUCUGCGAAUCCUGCUGUAUAUCUC [A15G U26C U49C U67C], 0.23. Regarding UAACAGGGGGCCACGGCAGAAGCGUUCACGACGCAGCCCCCGUCAGAUUCUGGAGCAUCUGCGAAUUCCGCUGUAUAUCUC [A15G U31A U41C U54A A56C U69C], the self-cleavage was determined as 0.17. As for UAACAGGGGGCCACGGCAGAAGCGUUCACGCCGCGGCCCCUGUCAGAUUCUGGUGAAUCUGCGAAUUCUGCCGUAUAUCUC [A15G U31C A35G U72C], the figure is 0.58; as for UAACAGGGGGCCACGGCAGAAGCGUCCACGUCGCAGCCCCUGUCAGAUUCAGGUGAAUCUGCGAAUUCUGCUGUAUAUCUC [A15G U26C U51A], 0.39. As for UAACAGGGGGCCACGGCAGAAGCGUUCACGACGCAGCCCCUGACAGAUUCUGGUGAAUCUGCGAAUUCUGCUGUAUAUCUC [A15G U31A U43A], the figure is 0.43; as for UAACAGGGGGCCACGGCAGAAGCGUCCACGUCGCAGCCCCUGUCAGAUUCUGGUGAAUCUGCGAAUUCUGCAGUAUAUCUC [A15G U26C U72A], 0.2. As for UAACAGGGGGCCACGGCAGAAGCGUUCACGACGCGGCCCCUGUCAGAUUCUGGUGAGUCUGCGAAUUCUGCUGUAUAUCUC [A15G U31A A35G A57G], the figure is 1.19.
